Screen size: about 360,000 compounds; about 4,200 (1.2%) were called active. Inconclusive results, whose numbers are uncertain, are shown with a selection of clear calls.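 The calls were made as follows: active = mean replicate inhibition at least 60% with every replicate also reaching 60%; inconclusive = only one of the two criteria is met; inactive = mean below 60% and not all replicates reaching 60%.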
Test: inhibitors of PAX8-driven TPO luciferase reporter, primary screen, RMG-I cells, single concentration (AID 652154);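 also: luciferase light reporting Pax8 driven TPO promoter activity; plate controls were median of neutral control wells for no effect and mitoxantrone controls for full effect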
Conditions: SteadyGlo, 24 h, at 12.6 µM, stronger effect = higher value

Compound | inhibition
COc1c(O)cc2c(c1OC)-c1ccc(SC)c(=O)cc1C(NC(C)=O)CC2 (configuration not stated) | inconclusive: 61.6%
CC[C@@H](O)C[C@H]1CCC[C@@]2(C[C@@H]3OC(=O)/C=C/[C@@](C)(O)[C@@H](O)[C@H](C)[C@@H](O)[C@H](OC4CCC(N(C)C)C(C)O4)[C@@H](O)[C@](C)(O)CCCCC/C=C/[C@@H]4CC(C)(C)O[C@@]4(O)C[C@H](O2)[C@H]3C)O1 (some centres not stated) | inconclusive: 62.6%
CN(C)C(=S)SSC(=S)N(C)C | inactive: -2.04%
O=C1C(=O)c2ccccc2-c2ccccc21 | inconclusive: 80.9%
Cc1ccc2nc(-c3ccc(CN4CCC(n5nnc6ccccc65)CC4)cc3)c(-c3ccccc3)nc2c1 | inconclusive: 61.1%
COC(=O)[C@@H]1[C@@H](CO)[C@@H]2Cn3c(ccc(-c4ccccc4)c3=O)[C@H]1N2CC1CCCCC1 | inactive: 21.6%
C[n+]1c(-c2ccccc2)cc(-c2ccc(Cl)cc2)cc1-c1ccccc1 | inconclusive: 69.1%
NC(=O)c1cn(C2OC(CO)C(O)C2O)c2ncnc(N)c12 (configuration not stated) | active: 95.8%
Cc1ccc(-c2cc(-c3ccc(C)cc3)[n+](C)o2)cc1 | inconclusive: 61.9%
COc1ccc(-n2nnnc2C(c2ccccc2)N2CCC(n3c(=O)[nH]c4ccccc43)CC2)cc1 (configuration not stated) | active: 78.4%
Fc1ccc(C(OCCN2CCN(CCCc3ccccc3)CC2)c2ccc(F)cc2)cc1 | inconclusive: 65.6%
CCOC(=O)[C@]12Cc3cc(OC)ccc3[C@H]1N(C)C(=O)c1cc(OC)ccc12 | inactive: 3.19%
C=C1C(C)C2C(Cc3ccccc3)NC(=O)C23C(OC(C)=O)C=CC(C)(O)CC(C)CC=CC3C1O (configuration not stated) | inconclusive: 60.1%
Nc1ccccc1-[n+]1c(-c2ccccc2)cc(-c2ccccc2)cc1-c1ccccc1 | inconclusive: 63.8%
O=C(Cc1ccccn1)N1CCCCN2[C@H](C1)[C@@H](c1ccc(Br)cc1)[C@@H]2CO | inactive: -7.42%
CC(C)N(C(=O)CCl)c1ccccc1 | inconclusive: 64.5%
c1ccc(P(c2ccccn2)c2ccccn2)cc1 | inactive: -9.09%
COC(=O)C1=C(c2ccc(F)cc2OCc2ccccc2)C[C@@H]2CC[C@H]1N2C(=O)NCc1ccc(C(F)(F)F)cc1 | active: 87.8%
CN1CCc2cc(O)cc3c2[C@H]1Cc1ccc(O)c(O)c1-3 | inconclusive: 63.2%
CNc1cc(Cl)c2nonc2c1[N+](=O)[O-] | inconclusive: 61.1%
O=C(c1ccc(CNS(=O)(=O)c2ccc(Br)cc2)cc1)N1CCC2(CC1)OCCO2 | active: 64.1%
C#CCOc1cc(C2C3=C(COC3=O)Nc3cc4c(cc32)OCO4)ccc1OC (configuration not stated) | inconclusive: 64.3%
CCC1CN1P(=O)(c1ccccc1)N1CC1CC (configuration not stated) | inactive: -36.4%
COC(=O)C1=C(c2ccc(F)cc2OCc2ccccc2)C[C@@H]2CC[C@H]1N2C(=O)NCc1ccc(C(C)(C)C)cc1 | active: 79%
CCCCn1c(=O)c(C=Nc2ccc(Cl)cc2)c(O)n(Cc2ccco2)c1=O | inactive: 13.2%
CCOC(=O)c1cccc(-[n+]2c(-c3ccccc3)cc(-c3ccccc3)cc2-c2ccccc2)c1 | active: 89.1%
CCN(CCCl)c1cc(CN(C)C)cc(NC(=O)c2ccc(C(=O)Nc3cc(CN(C)C)cc(N(CC)CCCl)c3)cc2)c1 | active: 108%

— PubChem BioAssay AID652154 (Broad Institute, 2013)
